Measured values taken from the antibiotic and cytotoxicity screens of Wong et al. (2023).
Some of the results follow.

What was measured:
HSkMC = human skeletal muscle cells; experiment: cytotoxicity call (relative viability < 0.9); details: 10 µM
HepG2 = experiment: cytotoxicity call (relative viability < 0.9); details: 10 µM
S. aureus RN4220 = experiment: growth inhibition call (relative growth <= 0.2); details: 50 µM

| Compound | cytotoxicity call (HSkMC) | cytotoxicity call (HepG2) | growth inhibition call (S. aureus RN4220) |
| --- | --- | --- | --- |
| C[C@H]1CN([C@@H](C)CO)S(=O)(=O)c2ccc(C#CC3(O)CCCC3)cc2O[C@@H]1CN(C)C(=O)Cc1cccnc1 | inactive | inactive | inactive |
| Cc1cccc(N(C)C(=S)Oc2ccc3ccccc3c2)c1 | inactive | inactive | inactive |
| Cc1cn(-c2cc(NC(=O)c3ccc(C)c(Nc4nccc(-c5cnccn5)n4)c3)cc(C(F)(F)F)c2)cn1 | active | inactive | inactive |
| C[C@@H]1CN([C@H](C)CO)C(=O)c2cc(NC(=O)Nc3ccc(C(F)(F)F)cc3)ccc2O[C@@H](C)CCCCO[C@@H]1CN(C)C(=O)Nc1cccc2ccccc12 | inactive | inactive | inactive |
| C[C@H](CO)N1C[C@H](C)[C@H](CN(C)S(=O)(=O)c2cn(C)cn2)Oc2ccc(NC(=O)Nc3ccc(F)cc3)cc2CC1=O | inactive | inactive | inactive |
| COCCNC(=O)C[C@H]1CC[C@H]2[C@@H](COc3ccc(NS(=O)(=O)c4ccc(Cl)cc4)cc3C(=O)N2C)O1 | inactive | inactive | inactive |
| C[C@@H]1CN([C@H](C)CO)C(=O)c2cc(NS(=O)(=O)c3ccc(F)cc3)ccc2O[C@@H]1CN(C)S(=O)(=O)c1ccccc1 | inactive | inactive | inactive |
| CO[C@@H]1CN(C)C(=O)c2ccc(NS(=O)(=O)CC(F)(F)F)cc2OC[C@@H](C)N(Cc2nccs2)C[C@@H]1C | inactive | inactive | inactive |
| C[C@@H]1CN([C@H](C)CO)C(=O)Cc2cc(NS(=O)(=O)c3cccs3)ccc2O[C@H]1CN(C)Cc1ccncc1 | inactive | inactive | inactive |
| C[C@H](CO)N1C[C@H](C)[C@H](CN(C)Cc2ccc(C(=O)O)cc2)Oc2ccc(NC(=O)CCN3CCOCC3)cc2CC1=O | inactive | inactive | inactive |
| C[C@@H]1CCCCO[C@@H](CN(C)S(=O)(=O)c2ccc(F)cc2)[C@@H](C)CN([C@H](C)CO)C(=O)c2cc(NC(=O)CCCCCC(=O)Nc3ccccc3N)ccc2O1 | inactive | inactive | inactive |
| CNC[C@H]1Oc2c(NS(=O)(=O)c3cn(C)cn3)cccc2C(=O)N([C@@H](C)CO)C[C@@H]1C | inactive | inactive | inactive |
| COc1ccc(NC(=O)N(C)C[C@@H]2OCCCC[C@H](C)Oc3ccc(NC(=O)C4CCCCC4)cc3C(=O)N([C@H](C)CO)C[C@@H]2C)cc1 | inactive | inactive | inactive |
| C[C@H](CO)N1C[C@H](C)[C@H](CN(C)Cc2ccc(C(=O)O)cc2)Oc2ccc(NC(=O)Nc3ccc(C(F)(F)F)cc3)cc2CC1=O | inactive | inactive | inactive |
| C[C@@H]1CCCCO[C@H](CN(C)S(=O)(=O)c2ccccc2)[C@@H](C)CN([C@@H](C)CO)C(=O)c2cc(NC(=O)Nc3ccc(F)cc3)ccc2O1 | inactive | inactive | inactive |
| Cc1noc(C)c1S(=O)(=O)N(C)C[C@@H]1OCc2cnnn2CCCC(=O)N([C@@H](C)CO)C[C@H]1C | inactive | inactive | inactive |
| COc1ccc(-c2ccc3c(c2)O[C@H](CN(C)CC2CCOCC2)[C@@H](C)CN([C@@H](C)CO)S3(=O)=O)cc1 | inactive | inactive | inactive |
| O=C(CSc1nnc[nH]1)C1CC1 | inactive | inactive | inactive |
| CC(=CCO)CCC(C)CCCC(C)CCCC(C)C (configuration not stated) | active | inactive | inactive |
| C[C@@H]1CN([C@H](C)CO)C(=O)c2cccc(NS(=O)(=O)c3ccc(Cl)cc3)c2O[C@@H]1CN(C)S(=O)(=O)c1cn(C)cn1 | inactive | inactive | inactive |

| Compound | cytotoxicity call (HSkMC) | cytotoxicity call (HepG2) | growth inhibition call (S. aureus RN4220) |
| --- | --- | --- | --- |
| Cn1cnc(S(=O)(=O)N[C@H]2CC[C@H](CC(=O)Nc3ccccc3)O[C@@H]2CO)c1 | inactive | inactive | inactive |
| O=C(C[C@H]1CC[C@H]2[C@@H](COC[C@@H](O)CN2S(=O)(=O)c2cccc(Cl)c2)O1)NC1Cc2ccccc2C1 | inactive | inactive | inactive |
| C[C@@H]1CN([C@H](C)CO)C(=O)c2cc(NC(=O)Nc3ccc(F)cc3)ccc2O[C@@H](C)CCCCO[C@@H]1CN(C)Cc1ccc(Cl)c(Cl)c1 | inactive | inactive | inactive |
| CCCNC(=O)C[C@@H]1CC[C@H]2NC[C@H](O)COC[C@@H]2O1 | inactive | inactive | inactive |
| C=CCNC(=O)[C@H]1[C@@H]2C(=O)O[C@@H](c3ccccc3)[C@@H](c3ccccc3)N2[C@@H](c2ccc(OCCO)cc2)[C@]12C(=O)N(C(=O)OCCOC)c1ccc(C#Cc3ccc(OC)cc3)cc12 | inactive | inactive | inactive |
| C[C@H]1CN([C@@H](C)CO)C(=O)c2cccc(NC(=O)c3ccc(-c4nccs4)cc3)c2O[C@@H]1CN(C)S(=O)(=O)c1cn(C)cn1 | inactive | inactive | inactive |
| CO[C@@H](CN(C)S(=O)(=O)c1ccc(C)cc1)[C@@H](C)CN([C@H](C)CO)S(=O)(=O)c1cccc(Cl)c1 | inactive | inactive | inactive |
| COc1ccccc1-c1cnc2c(c1)C(=O)N([C@H](C)CO)C[C@@H](C)[C@@H](CN(C)C(=O)c1ccncc1)O2 | inactive | inactive | inactive |
| CCOC(=O)N(C)C[C@@H]1OCc2cnnn2CCCC(=O)N([C@@H](C)CO)C[C@H]1C | inactive | inactive | inactive |
| Cc1ccc(S(=O)(=O)N(C)C[C@H]2Oc3ccc(NS(=O)(=O)c4ccc(F)cc4)cc3CC(=O)N([C@H](C)CO)C[C@H]2C)cc1 | inactive | inactive | inactive |
| C[C@@H]1CN([C@@H](C)CO)C(=O)c2cc(NC(=O)Nc3ccc(C(F)(F)F)cc3)ccc2O[C@H]1CN(C)Cc1ccc(-c2ccccc2)cc1 | active | active | inactive |
| Cc1noc(C)c1S(=O)(=O)N(C)C[C@H]1OCCCC[C@H](C)Oc2ccc(NC(=O)Nc3cccc4ccccc34)cc2C(=O)N([C@@H](C)CO)C[C@@H]1C | inactive | inactive | inactive |
| CC(C)NC(=O)Nc1ccc2c(c1)C(=O)N([C@H](C)CO)C[C@H](C)[C@@H](CN(C)S(=O)(=O)c1cn(C)cn1)OCCCC[C@H](C)O2 | inactive | inactive | inactive |
| COCC#Cc1cnc2c(c1)C(=O)N([C@@H](C)CO)C[C@@H](C)[C@@H](CN(C)C(=O)c1ccc3c(c1)OCO3)O2 | inactive | inactive | inactive |
| Cc1ccc(S[C@]2(C(=O)NC3CC3)CC(=O)N(C3Cc4ccccc4C3)[C@@H]2c2ccc(CO)cc2I)cc1 | inactive | inactive | inactive |
| COc1ccc(S(=O)(=O)N(C)C[C@@H]2Oc3ccc(NC(=O)c4ccncc4)cc3CC(=O)N([C@@H](C)CO)C[C@H]2C)cc1 | inactive | inactive | inactive |
| Cc1noc(C)c1S(=O)(=O)Nc1ccc2c(c1)C(=O)N([C@@H](C)CO)C[C@H](C)[C@@H](CN(C)Cc1ccc(C(F)(F)F)cc1)OCCCC[C@H](C)O2 | inactive | inactive | inactive |
| C[C@@H]1CN([C@@H](C)CO)S(=O)(=O)c2ccc(Br)cc2O[C@@H]1CN(C)Cc1ccc(C(=O)O)cc1 | inactive | inactive | inactive |
| CSC1=NN(C)c2cnn(C)c(=O)c2S1 | inactive | inactive | inactive |
